The record followed here is the supplement of paper PMC11417369.

Some of the results follow.

The test system of this assay is PF3D7_0420300 AP2 domain 1 (GST-tagged). Briefly: gcPBM binding intensity (ln(normalized median fluorescence intensity)); higher = stronger DNA binding. In a few lines:
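For binding intensity, the highest Masliner-normalised natural-log median intensity across replicate spots of either probe orientation was taken. Protein bound to the array was stained with Alexa488 anti-GST antibody and scanned at 488 nm. The protein, GST-tagged P. falciparum DNA-binding domains from E. coli at about 25 μg on average, had been applied for 1 h to an Agilent 4 × 180k array of primer-extended double-stranded 36-bp intergenic genomic probes and negative controls.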
On to “TTTTCATTAAGATACTTATAATAGTTTATTAGTAAA [CACACA_negctrl_site586]”, for which the “gcPBM binding intensity (ln)” value was determined as 8.77.

For “TTACAAATATTATAATGTACCCATTTTTTTTGCCTT [XGTACX_site6612]”, the “gcPBM binding intensity (ln)” value turned out to be 9.16. The same measure for “TAATATGAAGATGGCAGTACTCTAGTCAATTTTTAC [XGTACX_site5375]”: 9.18.

For the sequence “AATTCAAAGAAAAACTGTACGTGTAGCAAACATCCT [XGTACX_site599]”, the “gcPBM binding intensity (ln)” value was 9.43. “AAAATATATAAATATACATGCATAATTAATAGTATA [TGCATGCA_site804]”: the “gcPBM binding intensity (ln)” value turned out to be 9.33. In the case of AAAATAATTTTATAGTTGCACTATATCGTATACAAT it was 9.14; in that of “ATATATTTTATACATACACACATATATATATTTTTT [CACACA_site3940]”, 9.66. The same measure for “TGATTAAATCAAGAAAGTACAAAATGAAATATATAA [XGTACX_site4319]”: 9.18; for “TAAAGTGTAAAATTCACACACATATAAATAAATATA [CACACA_site6765]”: 9.49. Take “AAAACAAACATTACACGTACAAAACAAGTTATAGAC [XGTACX_site6320]”: the “gcPBM binding intensity (ln)” value worked out at 9.92. In the case of “TTTTTGATATTAAAGGGTACATTATTTACAAAAAAA [XGTACX_site5284]” it was 8.74; in that of “CTGCCTTCCATACCCACACACTTCCCATATATTTTA [CACACA_site5491]”, 10.1. The same measure for “ATGCTTTTTTATAAAAGTACATAAAGTTTTTACACT [XGTACX_site7307]”: 8.97. “ATTCTTTTATTTAGTAGTACATTTGTATTTTATTCA [XGTACX_site5790]”: the “gcPBM binding intensity (ln)” value worked out at 9.46. In the case of “GATCCTGGTTCTTGTGGTACTTGTTCATTTGTTATA [XGTACX_site7164]” it was 9.95.

For “TAAACATTTTTAATTTTGTAAAATTTTAAATAAAAA [XGTACX_negctrl_site612]”, the “gcPBM binding intensity (ln)” value came out at 8.56. The same measure for “TTTTTTATTGTGAAACTGATATTATATTTTTTATAA [GTGCAC_negctrl_site559]”: 9.02; for “ACAAACAAAGAAAGAACACACATACACAAGATACCT [CACACA_site7353]”: 9.97; for “TGAATATTTTATGATTGTACATATTATAATAAACAT [XGTACX_site6113]”: 9.22. “TATTATATATATAGGTGTACGCATTTGTCCTTTATA [XGTACX_site1385]”: the “gcPBM binding intensity (ln)” value turned out to be 9.35. For “AAACTTATGTTTACATGTACAGAACTTTATATTATG [XGTACX_site4843]”, the “gcPBM binding intensity (ln)” value stood at 9.18. For “TCGAACATTAACATAACACACATATAGATTTATATA [CACACA_site7380]”, the “gcPBM binding intensity (ln)” value was 9.44.

For the sequence “TTATTCTTTAACTAAAATTATATATATATATTATAC [CACACA_negctrl_site1597]”, the “gcPBM binding intensity (ln)” value came to 9.15.

With “TTGTATGCTTCCCGACTACATTATGCCATAAATGTA [TGCATGCA_negctrl_site136]”, the “gcPBM binding intensity (ln)” value stood at 9.13.
